Source: PubChem BioAssay (NCATS)
The inconclusive results got no clear call from the source; some entries with a clear call stand among them for comparison. No potency is given beside an inconclusive call; the fits are too rough. Calls of active or inactive are those of the source. The call rests on the fitted dose curve; in most records, active means well fitted cell-killing curve with a large enough effect; inconclusive means small, poorly fitted or top-dose-only effect; inactive means no such curve, though single readings can be large or run the other way.

test: qHTS of pediatric cancer cell lines to identify multiple opportunities for drug repurposing: Primary screen for NB1643 cells (AID 1347099); conditions: NB1643 neuroblastoma viability, CellTiter-Glo luminescence, 48 h; series mostly up to 46 µM; further: nearly all actives have a fitted effect of over 50% in size;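 on activity change, negative = cytotoxic: plate controls were DMSO neutral control for no effect and bortezomib positive control for full effect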
Outline: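 500-1,000 cells/well; 5 h pre-incubation 37 °C/5% CO2; compound pinned; 48 h; CellTiter-Glo, 15 min RT; luminescence. MIPE 11-pt from 0.78 nM, NPC 8-pt from 0.59 nM final. Bortezomib 2.3 µM final as positive control.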
Potency means the concentration at half of the fitted maximal effect; tags describe the fitted curve by direction and shape.

**Q.** For `O=C(O)c1nc(=O)[nH]c(=O)[nH]1`, which Potency is on record?
**A.** Its Potency is inconclusive [cytotoxic, partial curve, poor fit].

**Q.** For `CC1CC2C3CCC4=CC(=O)C=C[C@]4(C)[C@@]3(F)[C@@H](O)C[C@]2(C)[C@@]1(O)C(=O)CO` (some centres not stated), which Potency is on record?
**A.** Its Potency is inconclusive [cytotoxic, single point].

**Q.** Which Potency does the source give for `CCOC(=O)C1=C(O)C(=O)N(Cc2ccccc2)C1` here?
**A.** Its Potency is “inactive”.

**Q.** Which Potency does the source give for `C=CC[N+]1([C@H]2C[C@H]3[C@@H]4CC[C@H]5C[C@H](O)[C@@H](N6CCOCC6)C[C@]5(C)[C@@H]4CC[C@]3(C)[C@H]2OC(C)=O)CCCC1` here?
**A.** Its Potency is inconclusive [cytotoxic, partial curve].

**Q.** For `O=c1cc(-c2ccc(O)c(O)c2)oc2cc(O)cc(O)c12`, which Potency is on record?
**A.** The Potency was inconclusive [cytotoxic, partial curve].

**Q.** With `Cc1cccc(-c2[nH]ncc2-c2ccc3ncccc3n2)n1` as the compound, how does the Potency read?
**A.** The Potency was “inactive”.

**Q.** For `O=C(O)CCn1c2c(c3ccccc31)C[C@H](NS(=O)(=O)c1ccc(F)cc1)CC2`, which Potency is on record?
**A.** The Potency was inconclusive [cytotoxic, partial curve, poor fit].

test: qHTS of pediatric cancer cell lines to identify multiple opportunities for drug repurposing: Primary screen for LAN-5 cells (AID 1347100); conditions: LAN-5 neuroblastoma viability, CellTiter-Glo luminescence, 48 h; activity change, negative = cytotoxic: at 46 µM (top of the series);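 on activity change, negative = cytotoxic: plate controls were DMSO neutral control for no effect and bortezomib positive control for full effect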
Outline: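 Cells (500-1,000/well) in growth media were settled 5 h at 37 degrees C, then given compounds for 48 h. Viability was read as CellTiter-Glo luminescence. Primary runs used MIPE at 11 points (0.78 nM-46 µM) and NPC at 8 points (0.59 nM-46 µM); follow-ups used 11 points.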

**Q.** For `O=C(NC1CCOCC1)c1ccc(-c2cc(-c3cn[nH]c3-c3ccccn3)ccn2)cc1`, which Potency is on record?
**A.** The Potency was “inactive”.

**Q.** Which Potency does the source give for `Cc1coc2c1C(=O)C(=O)c1c-2ccc2c1CCCC2(C)C` here?
**A.** The Potency was inconclusive [cytotoxic, single point].

**Q.** With `Cc1cn([C@@H]2C[C@@H](O)[C@H](CO)O2)c(=O)[nH]c1=O` as the compound, how does the Potency read?
**A.** Its Potency is “inactive”.

**Q.** With `CC1COc2c(N3CCN(C)CC3)c(F)cc3c(=O)c(C(=O)O)cn1c23` (configuration not stated) as the compound, how does the Potency read?
**A.** The Potency was inconclusive [cytotoxic, single point].

**Q.** With `CCCCC(C)(C)[C@H](O)C=C[C@H]1[C@H](O)CC(=O)[C@H]1CC=CCCCC(=O)O` as the compound, how does the Potency read?
**A.** The Potency was inconclusive [cytotoxic, single point].

**Q.** Which Potency does the source give for `CC(C)OC(=O)C(C(=O)OC(C)C)=C1SC=CS1` here?
**A.** Its Potency is inconclusive [cytotoxic, single point].

**Q.** For `O=C(O)c1cc(=O)[nH]c(=O)[nH]1`, which Potency is on record?
**A.** Its Potency is “inactive”.

**Q.** With `NC(=O)c1ccc2nc(-c3ccc(Oc4ccc(Cl)cc4)cc3)[nH]c2c1` as the compound, how does the Potency read?
**A.** The Potency was inconclusive [cytotoxic, single point].

**Q.** With `O=C(O)C=Cc1ccc(Cn2ccnc2)cc1` as the compound, how does the Potency read?
**A.** Its Potency is “inactive”.

**Q.** For `C[C@H]1C[C@@H]2[C@@H]([C@@H](O)C[C@@]3(C)[C@H]2CC[C@]3(O)C(=O)CO)[C@@]2(C)C=CC(=O)C=C12`, which Potency is on record?
**A.** The Potency was “inactive”.

**Q.** For `Cn1cc(C=C2C(=O)Nc3cccnc32)c2ccccc21`, which Potency is on record?
**A.** Its Potency is “inactive”.

**Q.** Which Potency does the source give for `O=c1[nH]c(=O)n(C2CCCO2)cc1F` (configuration not stated) here?
**A.** The Potency was “inactive”.

**Q.** For `CN(N=O)C(=O)N[C@H]1C(O)OC(CO)[C@@H](O)[C@H]1O` (some centres not stated), which Potency is on record?
**A.** Its Potency is “inactive”.

**Q.** For `CN(C)CCOc1cc(-c2cn[nH]c2)ccc1NC(=O)C1COc2ccccc2O1` (configuration not stated), which Potency is on record?
**A.** The Potency was “inactive”.

**Q.** With `COc1cc(C(C)=O)ccc1OCCCN1CCC(c2noc3cc(F)ccc23)CC1` as the compound, how does the activity change, negative = cytotoxic read?
**A.** Its activity change, negative = cytotoxic is inconclusive: -64% [cytotoxic].
